About 2,200 (0.56%) of roughly 390,000 compounds were called active. The inconclusive results got no clear call from the source; some entries with a clear call stand among them for comparison. Calls come from the whole dose curve; as a rule, active = well fitted inhibition curve with a large enough effect; inconclusive = small, poorly fitted or top-dose-only effect; inactive = no such curve, though single readings can be large or run the other way. Potencies of inconclusive entries are doubtful fits and often do not repeat.
What follows are compounds tested against Chromobox protein homolog 1 (Homo sapiens) (UniProt P83916) (assay: HTS for Inhibitors of HP1-beta Chromodomain Interactions with Methylated Histone Tails). Conditions: AlphaScreen HP1-beta / biotin-H3K9me3 peptide binding; series mostly up to 114 µM.
Sequence of UniProt P83916 (P83916 whole entry, looked up): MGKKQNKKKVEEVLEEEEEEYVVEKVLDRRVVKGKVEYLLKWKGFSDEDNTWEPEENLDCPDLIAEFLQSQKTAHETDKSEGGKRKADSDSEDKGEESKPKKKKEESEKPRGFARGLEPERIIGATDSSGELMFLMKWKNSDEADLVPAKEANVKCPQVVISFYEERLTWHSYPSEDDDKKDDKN
Outline: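 AlphaScreen: HP1-beta (50 nM) preformed 30 min with biotin-H3(1-18)K9me3 peptide (50 nM) in PBS pH 7.4, 0.01% Tween-20. Compound added for 30 min at RT, then streptavidin donor/nickel chelate acceptor beads (10 ug/mL) for 30 min.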
`O=C(CNCCc1ccccc1)N1CCc2ccccc2C1` was tested, and the Potency was inconclusive: 44.7 µM [inhibitor, partial curve, poor fit].
In the case of `CCOc1ccc(CCNC(=O)c2ccc(Cl)c(S(=O)(=O)N3CCOCC3)c2)cc1OCC`, the Potency is reported as inconclusive: 44.7 µM [inhibitor, partial curve, poor fit].
In the case of `Cc1cccc2sc(NNC(=O)c3ccc(S(=O)(=O)N4CCCC(C)C4)cc3)nc12` (stereo unspecified), the Potency is reported as “inactive”.
For `Cc1ccc(-c2nn(-c3cccc(F)c3)cc2CN(Cc2nccn2C)C(C)C)o1`, the Potency was inconclusive: 35.5 µM [inhibitor, partial curve, poor fit].
With `Cc1ccc(S(=O)(=O)N2CCN(C(C)CC(=O)O)CC2)cc1` (stereo unspecified) the Potency was inconclusive: 15.8 µM [inhibitor, partial curve, poor fit].
For `O=C(Nc1c(-c2ccccc2)nc2ccccn12)c1cccc(F)c1`, the Potency was inconclusive: 89.1 µM [inhibitor, partial curve, poor fit].
With `NC(=O)CN(C/C=C/c1ccccc1)C/C=C/c1ccccc1` the Potency was inconclusive: 50.1 µM [inhibitor, partial curve, poor fit].
In the case of `Cc1cc(C)cc(NC(=S)NCCc2c[nH]c3ccccc23)c1`, the Potency is reported as inconclusive: 70.8 µM [inhibitor, single point].
In the case of `COc1cc(/C=N/N2CCN(c3ccccc3)CC2)cc(OC)c1OC(C)=O`, the Potency is reported as inconclusive: 17.8 µM [inhibitor, partial curve, poor fit].
For `Fc1ccc(N2CCN(C3=Nc4cccc5cccc3c45)CC2)cc1`, the Potency was inconclusive: 25.1 µM [inhibitor, partial curve].
`CC1N(C)c2cccc3cccc(c23)N1C` was tested, and the Potency was inconclusive: 28.2 µM [inhibitor, partial curve].
With `COc1cc(/C=N\NC(=O)c2ccc(-c3ccccc3)cc2)ccc1OCC(N)=O` the Potency was “inactive”.
For `OC(CNCC1COc2ccccc2O1)COc1ccccc1F` (stereo unspecified), the Potency was inconclusive: 89.1 µM [inhibitor, partial curve, poor fit].
`CC1=NN2C(=N)/C(=C\c3ccc(SCc4ccccc4)o3)C(=O)N=C2S1` was tested, and the Potency was “inactive”.
With `COc1ccc(N(Cc2ccccc2)S(=O)(=O)c2cc(C(=O)O)ccc2Cl)cc1` the Potency was inconclusive: 89.1 µM [inhibitor, single point].
For `Cc1cccc(NC(=O)C(=O)NCC(c2cccnc2)N2CCc3ccccc3C2)c1C` (stereo unspecified), the Potency was inconclusive: 25.1 µM [inhibitor, partial curve].
`Cc1ccc2c3c1C1(C(=O)N3C(C)(C)CC2C)C(C#N)=C(N)Oc2cc(O)ccc21` (stereo unspecified) was tested, and the Potency was inconclusive: 15.8 µM [inhibitor, partial curve, poor fit].
With `CCC(C)NC(=O)Cn1c(=O)n(-c2ccc(C)c(C)c2)c(=O)c2c3c(sc21)CCCCC3` (stereo unspecified) the Potency was “inactive”.
In the case of `Cc1cccc(N2C(=O)CC(Sc3ncn[nH]3)C2=O)c1` (stereo unspecified), the Potency is reported as inconclusive: 25.1 µM [inhibitor, single point].
For `O=C(CCCSc1ccccc1)Nc1nc(-c2ccco2)c(-c2ccco2)s1`, the Potency was active: 28.2 µM.
With `O=C(CCNC(=O)c1ccco1)Nc1nc(-c2ccccc2)cs1` the Potency was “inactive”.
In the case of `O=C(CSc1nnc(CCc2ccccc2)n1-c1ccc(Cl)cc1)c1ccccc1`, the Potency is reported as “inactive”.
In the case of `CC1=NN(C(N)=S)C(=O)C1N=Nc1cccc(Cl)c1C` (stereo unspecified), the Potency is reported as inconclusive: 25.1 µM [inhibitor, partial curve].
`C=CCn1c(SCC(=O)c2ccc(O)c(O)c2)nnc1-c1cccnc1` was tested, and the Potency was active: 25.1 µM.
`CC(=O)C(Sc1nn(C)c(=S)s1)C(=O)Nc1ccccc1` (stereo unspecified) was tested, and the Potency was inconclusive: 70.8 µM [inhibitor, single point].
In the case of `CC(C)CC(=O)N1CCN(Cc2cccc(F)c2)CC1`, the Potency is reported as inconclusive: 14.1 µM [inhibitor, full curve, poor fit].
With `CCOc1cc(/C=C2\SC(N3CCCCC3)=NC2=O)ccc1O` the Potency was inconclusive: 89.1 µM [inhibitor, partial curve, poor fit].
With `COc1ccc(NC(=O)c2cc(-c3ccccc3)nc3c2cnn3C(C)C)cc1` the Potency was inconclusive: 100 µM [inhibitor, single point].
With `CC/C(=N\NC(=S)Nc1ccc(OC)cc1)c1ccc(OC(F)F)cc1` the Potency was inconclusive: 39.8 µM [inhibitor, partial curve].
For `COc1ccc(-n2c(-c3cccc(C)c3[N+](=O)[O-])n[nH]c2=S)cc1`, the Potency was inconclusive: 31.6 µM [inhibitor, single point].
`N/C(=N\OC(=O)CC(c1ccccc1)c1ccccc1)c1cccnc1` was tested, and the Potency was “inactive”.
In the case of `CC(=C/c1ccco1)/C=N/NC(=O)CSc1nnc(SCc2ccc(C)cc2)s1`, the Potency is reported as inconclusive: 14.1 µM [inhibitor, full curve].
For `COc1ccc(CN(C)CC(=O)NC(C)c2ccccc2)c(OC)c1` (stereo unspecified), the Potency was inconclusive: 56.2 µM [inhibitor, single point].
`S=c1[nH]c2ccccc2n1Cc1ccccc1` was tested, and the Potency was inconclusive: 6.31 µM [inhibitor, full curve].
With `CCn1c(=NC(=O)c2ccc(S(=O)(=O)N3CCCCC3)cc2)sc2cccc(OC)c21` the Potency was “inactive”.
`CCCCCCCCCCOC(=O)NC1CCS(=O)(=O)C1` (stereo unspecified) was tested, and the Potency was “inactive”.
With `CCOC(=O)c1[nH]c2ccc(OC)cc2c1NC(=S)N1CCN(c2cccc(C)c2C)CC1` the Potency was inconclusive: 28.2 µM [inhibitor, partial curve, poor fit].
With `CCN(CC)S(=O)(=O)c1cc(C(=O)OCC(=O)NC(=O)c2cccn2C)ccc1C` the Potency was “inactive”.
For `CCOC(=O)N1CCc2c(sc(NCc3sccc3C)c2C(=O)Nc2cc(OC)ccc2OC)C1`, the Potency was inconclusive: 44.7 µM [inhibitor, partial curve, poor fit].
With `CC(=O)c1sc2nc(-c3ccco3)ccc2c1N` the Potency was inconclusive: 70.8 µM [inhibitor, single point].
In the case of `O=[N+]([O-])c1ccc2nc(/C=C/c3ccc(Cl)cc3)[nH]c2c1`, the Potency is reported as “inactive”.
In the case of `CCn1nnc(NC(=S)NC(=O)c2ccc(-c3cccc(Cl)c3)o2)n1`, the Potency is reported as inconclusive: 14.1 µM [inhibitor, partial curve, poor fit].
With `O=[N+]([O-])c1ccc(N=NNc2ccccc2)cc1` the Potency was inconclusive: 39.8 µM [inhibitor, partial curve].
With `O=C(COc1ccc(Cl)cc1)Nc1sc2c(c1C(=O)Nc1cccc(Cl)c1)CCCC2` the Potency was inconclusive: 6.31 µM [inhibitor, full curve].
In the case of `COc1cc(/C=N\Nc2nc(-c3ccc(C)cc3)c(NC(C)=O)s2)ccc1O`, the Potency is reported as active: 28.2 µM.
`NNC(=S)NC1CCS(=O)(=O)C1` (stereo unspecified) was tested, and the Potency was inconclusive: 89.1 µM [inhibitor, single point].
With `CCOc1ccc(N=CNc2ccc(OCC)cc2)cc1` the Potency was “inactive”.
For `Cc1ccc(C(=O)c2coc3cc([N+](=O)[O-])c(O)c([N+](=O)[O-])c23)cc1`, the Potency was inconclusive: 50.1 µM [inhibitor, partial curve].
`O=C(COC(=O)c1cc2ccccc2o1)c1ccccc1` was tested, and the Potency was “inactive”.
For `Cc1ccc(-n2c(-c3ccncc3)n[nH]c2=S)c(C)c1`, the Potency was “inactive”.
`COc1ccc(Cn2nnnc2CN2CCN(c3ccc(OC)cc3)CC2)cc1` was tested, and the Potency was inconclusive: 25.1 µM [inhibitor, full curve].
For `O=C(O)CCCN1C(=O)/C(=C\c2ccccc2OCc2ccccc2)SC1=S`, the Potency was inconclusive: 31.6 µM [inhibitor, partial curve].
For `COCC(=O)N1CCC(Oc2ccc(C(=O)N(C)Cc3nccs3)cc2)CC1`, the Potency was “inactive”.
In the case of `Cc1cc(C(=O)CN2C(=O)NC3(CCCCC3)C2=O)c(C)n1Cc1ccco1`, the Potency is reported as “inactive”.
In the case of `CC1=NN(c2ccc(Cl)cc2)C(=O)C1C(c1cccc(O)c1)c1c(C)[nH]n(-c2ccc(Cl)cc2)c1=O` (stereo unspecified), the Potency is reported as inconclusive: 56.2 µM [inhibitor, single point].
For `CN1CCN(CC(=O)Nc2ccccc2C(F)(F)F)CC1`, the Potency was inconclusive: 22.4 µM [inhibitor, partial curve, poor fit].
In the case of `CC(C)c1ccccc1NC(=O)CCCC(=O)O`, the Potency is reported as “inactive”.
In the case of `COc1cc(OC)c(OC)cc1CN1CCc2ccccc2C1`, the Potency is reported as inconclusive: 89.1 µM [inhibitor, partial curve, poor fit].
In the case of `Cc1cccc(C)c1OCCCn1ccnc1`, the Potency is reported as inconclusive: 28.2 µM [inhibitor, full curve].
For `COc1ccc(C(=O)Nc2ccccc2C(=O)NC(C)C)cc1OC`, the Potency was “inactive”.
With `NS(=O)(=O)c1ccc(CCNCC(=O)NC2CC2)cc1` the Potency was inconclusive: 70.8 µM [inhibitor, single point].
`O=C(/C=C/c1ccc(N2CCCCC2)c([N+](=O)[O-])c1)c1ccc(O)cc1` was tested, and the Potency was active: 35.5 µM.
With `CCOc1cc(N2CCOCC2)c(OCC)cc1NC(=O)c1cccc(N(C)C)c1` the Potency was inconclusive: 50.1 µM [inhibitor, partial curve].
In the case of `O=C1OC(N2C(=O)CC[C@H]2C(=O)Nc2ccc3c(c2)OCO3)c2ccccc21` (stereo partly specified), the Potency is reported as “inactive”.
In the case of `CCC(=O)Oc1oc(-c2ccccc2)nc1C=Nc1ccc(C)cc1`, the Potency is reported as “inactive”.
In the case of `CC(=O)C(=Nc1ccc(Cl)cc1Cl)NNc1cccc(Cl)c1`, the Potency is reported as inconclusive: 20 µM [inhibitor, full curve].
With `CCc1ccccc1NC(=O)N1CCN(c2nnc(C)c3c(C)n(-c4ccccc4)nc23)CC1` the Potency was “inactive”.
`CC1CCN(C(=O)Cn2cc(SCc3cccc(F)c3)c3ccccc32)CC1` was tested, and the Potency was “inactive”.
`Cc1ccc(NCc2ccccc2O)cc1C` was tested, and the Potency was inconclusive: 44.7 µM [inhibitor, partial curve, poor fit].
In the case of `CC1(C)CC(=O)C(Sc2ccccc2[N+](=O)[O-])=C(O)C1`, the Potency is reported as “inactive”.
With `Cc1ccc(Cl)c2c1=NC(=O)C=2c1[nH]c(=S)[nH]c1O` the Potency was inconclusive: 50.1 µM [inhibitor, partial curve, poor fit].
Note: nearly all actives have a fitted effect of over 70% in size.
Potency is the fitted concentration of half-maximal effect; tags give direction and shape of the fitted curve.
